From patent US20030232797A1, “Novel derivatives of androstane and androstene with ascorbic acid and use thereof in treating or preventing various conditions, diseases, and disorders” (priority 2002, published 2003)

Experimental: Selected derivatives formed in accordance with the present invention were tested for solubility using the following protocol: Into an 1 ml glass vial was added 50 mg of the sample to be tested. Water (or other desired solvent) was added portion by portion (50 micro liter per portion) at an interval of 10 minutes until a clear solution was obtained. An ultrasonic bath was employed to enhance the solubilizing process. The weight of the water
added was determined by an analytical balance.

Ascorbyl phosphate of 5α-androststan-3β-ol-17- one, Disodium salt
Solubility in ethanol: Soluble in water (9.5%, w/w) Slightly soluble in ethanol
Solubility in water: Soluble in water (9.5%, w/w) Slightly soluble in ethanol
